# Reference: the supplement of paper PMC11417369
# The list shows a part of the results.
# Test system: PfAP2-HC AP2 domain (GST-tagged)
# Experiment: gcPBM binding intensity (ln(normalized median fluorescence intensity)); higher = stronger DNA binding
# Summary of the method: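 Plasmodium falciparum DNA-binding domains carrying a GST tag were expressed in E. coli and applied for 1 h, at about 25 μg on average, to an Agilent 4 × 180k array. The array held primer-extended double-stranded 36-bp intergenic genomic probes together with negative controls, and binding took place in 1× PBS with 1% milk, 0.2 mg/ml BSA, 0.5% salmon testes DNA and 0.03% Triton X-100. An Alexa488 anti-GST antibody detected bound protein, and the array was scanned at 488 nm. Binding intensity is taken as the highest Masliner-normalised natural-log median intensity across replicate spots of either probe orientation.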
row,Sequence,gcPBM binding intensity (ln)
1,TATAAATACTAAAAAAGTACAAAATTTCATAAAAAA [XGTACX_site2709],9.61
2,TTCTTTATTTATCATTATAAGAAGAGTTGATTTGTT [XGTACX_negctrl_site555],9.44
3,TTATAATATAGCAATTATTAAATAGGATCAAATGAA [CACACA_negctrl_site632],9.52
4,AACAAATTTATCCAAAGTACAAAATATCATTTCTTA [XGTACX_site4543],9.56
5,AACAACATGTAGACGCGTACCAACATCAGATCCTAT [XGTACX_site4071],9.86
6,ATTATAATTATATATGCATGTAGCATTTTCTATTTT [TGCATGCA_site66],9.72
7,ATATAAGAAATAAAGAAAAATGTGTTTTTTTTTTTT [XGTACX_negctrl_site396],9.6
8,AGAGCTGTTTTTTATGCATGTAGTTTAGAAAATACA [TGCATGCA_site257],9.31
9,TTTATCTTATTTTTATGTACTTATTTTATAAAAAAA [XGTACX_site7730],9.42
10,TTTTTCCTAACATATTATATACTTGAATATTTATTA [CACACA_negctrl_site156],9.62
11,AAACAAATATTTATCACAATGTCATTTTGTTAACAT [GTGCAC_negctrl_site171],9.63
12,TATTTGTAAATTATTTGGGTGTGTAGGGGATATTCT [XGTACX_negctrl_site204],9.8
13,CGTTCATATTATTATAGTACATATTATTATAGTTTT [XGTACX_site1550],9.85
14,TTTTTTTTTTTATTTGCATGCGGTGTTCATAATATT [TGCATGCA_site199],9.63
15,TTGGTGGATAAATTTACACACAATAACTTTCGTTCA [CACACA_site6358],9.74
16,AGAAGAAAAGTAAAAAGTACATTATTCATGGCCTAT [XGTACX_site5601],9.6
17,TTTGAGATAAAAGACTGTACTTAGAATGTATAAAAA [XGTACX_site203],9.51
18,AAAAAAAAAAAAAACTGTACCAAAAAGAATATATAC [XGTACX_site8345],9.71
19,TTTAATTTTATATAGAGTACAAAAAAATAGAAAGAT [XGTACX_site3870],9.8

row,Sequence,gcPBM binding intensity (ln)
1,ATATATATATATATATGTACATAAATATTTTAAAAT [XGTACX_site4980],9.85
2,ATATATATATATATATGTACACATATACGCTTTTTC [XGTACX_site3838],9.65
3,TTGTTTCTACAATTTAATAAAATACGTTTTCAAAAA [XGTACX_negctrl_site377],9.05
4,TACTCCTTAAATATATGTAAAGGAAGAAAAAAAAAA [XGTACX_negctrl_site306],9.43
5,ACAATAAAAATAAAAAGTACAAATAAAAAAAATAAA [XGTACX_site6718],9.82
6,TATAATAATACGTATTGTACTATTAGGTTAATTCGT [XGTACX_site264],9.68
7,TTTTCTTGTAAATTACGTACGAATGTGTAGAGAAAT [XGTACX_site1339],9.47
8,TCTATAAAGGAATATACACACATATATATATATATA [CACACA_site410],9.66
9,ACTTGTAAGAAACACACACACACACCCATATATATA [CACACA_site796],11.5
10,AAGTAAAATAAGTATACACACATAAATATATATATA [CACACA_site685],10.1
11,TAAAATATAAAACACACACACATATATATATATATT [CACACA_site224],10.3
12,ATCCTCTTTACAATATGTACATAAATATATATTTAT [XGTACX_site8001],10.2
13,TATATATATAAATACACACACATATATATATATATA [CACACA_site4867],9.84
14,TATATATTTTTATTATGTACATATTAACAATGTGTT [XGTACX_site879],9.77
15,TATTCCCTTCTTCCTTCTGTTTTTGATATTAAAGGG [GTGCAC_negctrl_site270],9.51
16,ATACTTTATTCGTTAGCACACAATTCAAGTTGATTC [CACACA_site1123],9.86
17,AAGATACCCCAAAATTGTACATATTAAAATAATAAA [XGTACX_site3603],9.52
18,ATAAAATAAACATAAATAAACATAAATAAACAAAAA [CACACA_negctrl_site1270],9.96
19,AGGTATATATACATATGTACGTATATATATATATAT [XGTACX_site5115],10.3

row,Sequence,gcPBM binding intensity (ln)
1,TTTAAAAATAAAAGTACACACATAAACATATTACAC [CACACA_site1428],9.97
2,TATAATACAACATGCACACATATATATGTGAATCTC [CACACA_site2490],9.95
3,TTATATAAATTATTTACACACAAACATTTATACTTT [CACACA_site3449],9.91
4,TTTCTAATTTATATCACACACATATTTATATAGTAA [CACACA_site6813],9.83
5,GGCGTATGTGTATATACACACCCACGTATATAAATA [CACACA_site7489],9.67
6,TTTCTTTTTTTTTTTTTTTCTTTTTTTTTTTTTTTC [CACACA_negctrl_site1025],9.2
7,GGAATATTTTATGAGTGTACATTTTTTTTTTTTTTT [XGTACX_site2370],9.54
8,ATAATCCAACTTTGAGTGCGTGGTGTTTTTTTTTTC,10.1
9,AAAAAAAAAAATAAATAAATAAATAAATATATATAT [TGCATGCA_negctrl_site468],9.56
10,TACATACATATATATACACACATATATAATATATAT [CACACA_site388],9.92
11,TATATATACATATACACACATACGTACATACATATA [CACACA_site3585],10
12,ATATTCATATATACTTCACACACATTTTATCATTCA [CACACA_site8784],10
13,ATGAAAGTAAGACATGCATGGAATTTTTTTTATTAG [TGCATGCA_site348],9.68
14,TTTTTTGTGTTTGGTACACACGTTATAAAAAATAAA [CACACA_site4866],9.56
15,TTTTTTTTTTTTGAAGTGCATTACTTTTTTTGTATT [GTGCAC_site9811],9.46
16,GAAAATAGCTAAAATACACACAATTAAAAATTATTA [CACACA_site3506],9.74
17,AGGAATATAAAGTGCACACATAATTTGGGGGCAAAA [CACACA_site258],10.1
18,ATATGTCACTTGTATACACACATATATATTTCAATC [CACACA_site3256],10.1
